Measurements reported in PubChem BioAssay AID1259400 (National Center for Advancing Translational Sciences (NCATS), 2018).
The campaign covered roughly 350,000 compounds. About 2,100 (0.6%) were called active. The shares of active, inactive and inconclusive entries below differ from those in the screen.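 The calls were made as follows: active = activity change of -60% or lower, but not beyond a set lower limit; inconclusive = change between -60% and -40%, or beyond the set limit; inactive = change above -40%.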
% is scaled to controls: 0 for no effect and ±100 for the full control effect.

Each compound was assayed against Relaxin receptor 1 (Homo sapiens) (UniProt Q9HBX9) (assay: qHTS Assay for Antagonists of the Relaxin Receptor RXFP1). Settings: HEK293-RXFP1, relaxin-stimulated cAMP HTRF, 30 min; at 57.5 µM; stronger effect = lower value.
UniProt Q9HBX9, sequence (Q9HBX9 whole entry, looked up): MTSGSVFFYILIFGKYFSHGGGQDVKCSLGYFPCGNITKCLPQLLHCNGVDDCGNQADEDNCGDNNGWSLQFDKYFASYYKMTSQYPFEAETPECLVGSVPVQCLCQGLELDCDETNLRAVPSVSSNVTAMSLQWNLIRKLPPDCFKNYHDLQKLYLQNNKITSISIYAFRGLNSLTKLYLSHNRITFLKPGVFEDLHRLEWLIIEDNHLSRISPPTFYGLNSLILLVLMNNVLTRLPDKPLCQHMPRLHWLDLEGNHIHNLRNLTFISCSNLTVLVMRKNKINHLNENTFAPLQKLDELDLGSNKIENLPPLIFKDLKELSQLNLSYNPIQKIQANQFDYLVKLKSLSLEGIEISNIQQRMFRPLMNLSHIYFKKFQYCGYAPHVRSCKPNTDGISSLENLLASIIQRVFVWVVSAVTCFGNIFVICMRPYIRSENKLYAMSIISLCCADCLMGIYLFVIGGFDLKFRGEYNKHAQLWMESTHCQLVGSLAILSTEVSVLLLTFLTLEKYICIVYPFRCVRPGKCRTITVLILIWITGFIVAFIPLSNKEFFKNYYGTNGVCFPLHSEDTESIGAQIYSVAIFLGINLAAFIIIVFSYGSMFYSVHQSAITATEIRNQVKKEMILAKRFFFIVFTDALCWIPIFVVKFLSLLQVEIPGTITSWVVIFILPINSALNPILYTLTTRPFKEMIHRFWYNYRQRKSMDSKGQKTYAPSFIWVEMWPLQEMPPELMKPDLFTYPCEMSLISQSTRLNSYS
`Cc1ccc(-n2ncc(C(=O)Nc3ccc4c(c3)OCO4)c2C2CCN(C(=O)OC(C)(C)C)CC2)cc1` was tested, and the activity change, negative = inhibition was inconclusive: -48.2%. `CC(C)CCNC(=O)Nc1ccc2c(c1)N(C)C(=O)c1ccccc1S2` was tested, and the activity change, negative = inhibition was inconclusive: -48.6%. With `O=C(CCc1c[nH]c2ccccc12)OCc1ccc(Br)cc1` the activity change, negative = inhibition was inconclusive: -42.4%. With `COc1ccc(OC)c(C2(O)CSC(=Nc3cccnc3)N2Cc2ccco2)c1` (centres undefined) the activity change, negative = inhibition was inconclusive: -50.9%. In the case of `CC1=CC2(O)OCCN(CCO)C2=CC1=O` (centres undefined), the activity change, negative = inhibition is reported as inactive: -5.18%. For `CCC(=O)Oc1ccc(C/C(=N\O)c2ccc(O)cc2O)o1`, the activity change, negative = inhibition was active: -60.1%. `COc1ccc(NC(=O)c2cc(-c3ccco3)nc3ccccc23)cn1` was tested, and the activity change, negative = inhibition was inconclusive: -41.3%. With `COc1cc(/C=C(\C#N)C(=O)Nc2ccc(C(=O)O)cc2)ccc1OC(=O)c1cccc(F)c1` the activity change, negative = inhibition was active: -83.1%. For `CC(C)NC(=O)/C(C#N)=C\c1ccc(N(C)C)c(Br)c1`, the activity change, negative = inhibition was inconclusive: -41.2%. With `O=C(Nc1nc(-c2ccc(Cl)cc2)cs1)NC1CCCCC1` the activity change, negative = inhibition was inconclusive: -42%. `CNC(=O)c1cc2ncc(C(F)(F)F)cc2s1` was tested, and the activity change, negative = inhibition was active: -82.4%. `Cc1ccc(S(=O)(=O)NCCC(=O)NC(C)CCc2ccccc2)cc1` (centres undefined) was tested, and the activity change, negative = inhibition was active: -62%. In the case of `CS(=O)(=O)c1ccccc1-c1nnc(NC(=O)c2cccc(N3C(=O)CCC3=O)c2)o1`, the activity change, negative = inhibition is reported as active: -76.4%. With `COc1ccc(CC2(C)OC(c3ccc(Cl)cc3)=NN2C(C)=O)cc1` (centres undefined) the activity change, negative = inhibition was inconclusive: -51.2%. For `COc1ccc(NC(=O)/C(C#N)=C/c2ccc(Sc3nncn3C)c([N+](=O)[O-])c2)cc1`, the activity change, negative = inhibition was inconclusive: -53%. With `CN(C(=O)CSc1nncn1-c1ccccc1)C1CCS(=O)(=O)C1` (centres undefined) the activity change, negative = inhibition was inconclusive: -40.1%. For `Cn1c(=O)c2nc(SCC(=O)Nc3cc(Cl)cc(Cl)c3)n(C)c2n(C)c1=O`, the activity change, negative = inhibition was inactive: -5.65%. For `O=C(O)c1ccc(N/N=C/c2ccc(OC(=O)c3cccc(Cl)c3)cc2)cc1`, the activity change, negative = inhibition was inconclusive: -49.2%. In the case of `O=C(/C=C1\NC2(CCCC2)Cc2ccccc21)C(=O)N/N=C/c1ccccc1O`, the activity change, negative = inhibition is reported as inconclusive: -49.7%. `CC(C)(C)OC(=O)N1CCC(c2c(C(=O)N3CCN(c4ccc(Cl)cc4)CC3)cnn2-c2ccc(F)cc2F)CC1` was tested, and the activity change, negative = inhibition was inconclusive: -42.5%. With `COc1cccc(NC(=O)c2nc(S(C)(=O)=O)ncc2Cl)c1` the activity change, negative = inhibition was inconclusive: -46.9%. `Nc1c(C(=O)NCc2ccc3c(c2)OCO3)nnn1CC(=O)Nc1ccc(Br)cc1` was tested, and the activity change, negative = inhibition was inconclusive: -51.1%. `O=C(c1ccc(N2CCCC2)c([N+](=O)[O-])c1)N1CCN(S(=O)(=O)c2ccc(Cl)cc2)CC1` was tested, and the activity change, negative = inhibition was active: -63.7%. For `O=C(Nc1ccc2c(c1)CCC2)c1cnc(Cl)c(Cl)c1`, the activity change, negative = inhibition was inconclusive: -57.9%. `Cc1nnc2sc(SCC(=O)N3CCCCC3)nn2c1=O` was tested, and the activity change, negative = inhibition was inactive: 1.42%. For `O=C(NCc1ccccc1Cl)c1cnc(N2CCCCC2)c2ccccc12`, the activity change, negative = inhibition was inactive: -36.6%. For `CN(C)c1ccc(/C=N/NC(=O)CCCCCNC(=O)c2ccccc2)cc1`, the activity change, negative = inhibition was inactive: -13.9%. For `O=C(CSc1ncn[nH]1)Nc1ccc([N+](=O)[O-])cc1Br`, the activity change, negative = inhibition was inconclusive: -40.7%. With `Cc1ccc(-c2ccc(C(=O)O)o2)cc1Cl` the activity change, negative = inhibition was inconclusive: -41.8%. With `CC(Cc1cccs1)NC(=O)Nc1ccc(F)cc1` (centres undefined) the activity change, negative = inhibition was inconclusive: -44%. With `N#C/C(=C\C=C\c1ccccc1[N+](=O)[O-])C(=O)NC1CCCCC1` the activity change, negative = inhibition was inconclusive: -44.1%. `Cc1cc(C)cc(NC(=O)C(=O)NCC(c2cccnc2)N2CCc3ccccc32)c1` (centres undefined) was tested, and the activity change, negative = inhibition was inconclusive: -49.1%. In the case of `O=C(NNS(=O)(=O)c1ccccc1)c1ccccc1-n1cccc1`, the activity change, negative = inhibition is reported as inactive: 9.66%. `CC(C)C1C(=O)N(Cc2cn(Cc3ccco3)nn2)CCS(=O)(=O)N1Cc1ccc(-c2ccc(Cl)cc2)cc1` (centres undefined) was tested, and the activity change, negative = inhibition was inconclusive: -47.3%. In the case of `CCC(C)(C)C(=O)O[C@H]1C[C@@H](C)C=C2C=C[C@H](C)[C@H](CC[C@@H]3C[C@@H](O)CC(=O)O3)[C@H]21`, the activity change, negative = inhibition is reported as inconclusive: -42.9%. For `Cc1ccc(S(=O)(=O)c2nc(-c3ccco3)oc2N2CCC(C)CC2)cc1`, the activity change, negative = inhibition was active: -62.6%. For `O=[N+]([O-])/C=C/c1ccc2c(ccn2Cc2ccccc2)c1`, the activity change, negative = inhibition was active: -93.7%. `CCn1c(N2CCN(C(=O)Nc3ccc(F)cc3)CC2)nc2ccccc21` was tested, and the activity change, negative = inhibition was inactive: 3.55%. For `COc1ccc(N=C2SCC(c3ccc(C)cc3)=NN2CCO)cc1`, the activity change, negative = inhibition was inconclusive: -56.4%. With `COC(=O)c1c(NC(=O)C2=COCCO2)sc(C)c1C` the activity change, negative = inhibition was inconclusive: -51%. For `O=C(O)c1cc2cc(OCc3ccccc3)ccc2[nH]1`, the activity change, negative = inhibition was inactive: -8.32%. `Cc1ccc([N+](=O)[O-])cc1NC(=O)c1ccc(-c2ccccc2)cc1` was tested, and the activity change, negative = inhibition was inconclusive: -53.5%. For `O=C(NNc1nc(-c2ccccc2)cs1)c1cccs1`, the activity change, negative = inhibition was inconclusive: -57.6%. For `Cc1cccn(Cc2c(Cl)cccc2Cl)c1=O`, the activity change, negative = inhibition was inconclusive: -40.5%. `CCSc1nc(=S)cc(C)[nH]1` was tested, and the activity change, negative = inhibition was active: -75.2%. In the case of `CCn1c(=S)[nH]c2scc(-c3cccs3)c2c1=O`, the activity change, negative = inhibition is reported as inactive: -13.6%. For `CCc1cc(=O)oc2c(C)c(OCC(=O)NCCCN3CCCC3=O)ccc12`, the activity change, negative = inhibition was inconclusive: -41.2%. With `Cc1nn2c(=O)c3c4c(sc3nc2n1-c1ccccc1)COC(C)(C)C4` the activity change, negative = inhibition was inactive: -5.96%. With `CCCc1[nH]nc2c1C(c1cc(OC)cc(OC)c1)C(C#N)=C(N)O2` (centres undefined) the activity change, negative = inhibition was inactive: -14.9%. With `COc1ccc(OC)c(-c2cc(C3CCN(c4cc(Cl)nc(N)n4)CC3)[nH]n2)c1` the activity change, negative = inhibition was inactive: -26.2%. `Cc1cccn2c(=O)c(/C=C3\SC(=S)NC3=O)c(NCCCN3CCOCC3)nc12` was tested, and the activity change, negative = inhibition was inactive: 8.81%. In the case of `CC1CC(C)CN(C(=O)CCCn2c(=S)[nH]c3ccccc3c2=O)C1` (centres undefined), the activity change, negative = inhibition is reported as active: -97.2%. With `Cc1cc(Nc2ccccc2Cl)c2ccccc2n1` the activity change, negative = inhibition was inconclusive: -42.2%. With `CC(C)CCNC(=O)c1ccc(Cn2c(=S)[nH]c3ccccc3c2=O)cc1` the activity change, negative = inhibition was active: -73%. With `CCN(/C=N/c1sc2c(c1C#N)CCCCC2)CC` the activity change, negative = inhibition was inactive: 0.741%. In the case of `c1ccc(-c2ccc(OCCCNC3CCCC3)cc2)cc1`, the activity change, negative = inhibition is reported as inconclusive: -53.1%. With `COc1ccc(NC(=O)/C(Cl)=C(/Cl)S(=O)Cc2ccccc2Cl)cn1` (centres undefined) the activity change, negative = inhibition was active: -118%. `O=C(NNc1ccccc1Br)C(O)(c1cccc(C(F)(F)F)c1)c1cccc(C(F)(F)F)c1` was tested, and the activity change, negative = inhibition was inconclusive: -59%. `O=C(Nc1ccc(F)cc1F)c1cc2ccc3cccnc3c2[nH]1` was tested, and the activity change, negative = inhibition was inactive: 11.6%. `O=C(NCCN1C(=O)S/C(=C\c2ccc(Cl)c([N+](=O)[O-])c2)C1=O)C1=COCCO1` was tested, and the activity change, negative = inhibition was inconclusive: -50.9%. In the case of `CN(C)c1ccc(CNC(=O)Cn2c(=O)oc3cc(S(=O)(=O)NCc4ccccc4)ccc32)cc1`, the activity change, negative = inhibition is reported as inconclusive: -40.7%. With `COCCn1c(=S)[nH]c2cc(C(=O)N3CCc4ccccc4C3)ccc2c1=O` the activity change, negative = inhibition was active: -66.1%. `CC1CC2(CCCCC2)N2C(=O)C(=O)c3cccc1c32` (centres undefined) was tested, and the activity change, negative = inhibition was inconclusive: -43.9%. `Cn1nnnc1SCC(=O)Nc1nc(-c2ccccc2)c(-c2ccccc2)o1` was tested, and the activity change, negative = inhibition was inconclusive: -51.8%. With `Nc1ccc(N(CCO)CCO)cc1` the activity change, negative = inhibition was inconclusive: -44.3%. `CCOC(=O)c1cc(-c2ccccc2)n(-c2cccc(C(=O)NC(C)CC)c2)c1C` (centres undefined) was tested, and the activity change, negative = inhibition was inconclusive: -42.3%. With `O=C(O)CSc1ccc2ccccc2n1` the activity change, negative = inhibition was inactive: 21.7%. `CCOC(=O)C1CCCN(C(=O)c2cc3c(Cl)nc4ccccc4c3s2)C1` (centres undefined) was tested, and the activity change, negative = inhibition was inconclusive: -57.5%. In the case of `O=C(NC1CC1)c1cc2c(F)cccc2s1`, the activity change, negative = inhibition is reported as inconclusive: -54.9%. With `CCOc1ccc(NC(=O)c2ccc3c(c2)N(Cc2ccc(F)cc2)C(=O)CS3=O)cc1` (centres undefined) the activity change, negative = inhibition was inconclusive: -46.3%. With `CCOc1cc(/C=C2/SC(=S)NC2=O)ccc1OC(=O)c1ccco1` the activity change, negative = inhibition was inconclusive: -58.2%. `CC1CCCCCCC1OC(=O)c1ccccc1C(=O)O` (centres undefined) was tested, and the activity change, negative = inhibition was inactive: -3.14%. In the case of `C=CCN(c1ccccc1)S(=O)(=O)c1ccc2c(c1)oc(=O)n2C`, the activity change, negative = inhibition is reported as active: -76.8%. In the case of `N/C(=N\N=C\c1ccc(Br)o1)c1nonc1N`, the activity change, negative = inhibition is reported as inactive: -0.901%. `O=C(c1ccccc1Cl)N1CCCC(c2nc3c(nnn3Cc3ccc(F)cc3F)c(=O)[nH]2)C1` (centres undefined) was tested, and the activity change, negative = inhibition was inactive: -7.95%. For `CCOC(=O)c1ccc(NC(=O)C2=C(C)C(=O)OC23CCCCCC3)cc1`, the activity change, negative = inhibition was inconclusive: -44.9%. In the case of `Oc1ccc(O)c(Cc2nc3ccccc3s2)c1`, the activity change, negative = inhibition is reported as active: -77.3%. In the case of `CCOc1cc(C=NN2CCCCCC2)ccc1O`, the activity change, negative = inhibition is reported as inactive: -11.6%. `CC(C)(C)c1ccc(/C=C/C(=O)N2CCN(c3ncccn3)CC2)cc1` was tested, and the activity change, negative = inhibition was inconclusive: -40.5%. With `COCCCNC(=O)N1c2ccccc2Sc2ccccc21` the activity change, negative = inhibition was inconclusive: -48.6%. For `O=C1NN=C(c2ccc(Cl)cc2)CC1c1cccc(Br)c1` (centres undefined), the activity change, negative = inhibition was inconclusive: -45.4%. With `COc1cc(C2NC(=O)c3c(sc4c3CCN(C)C4)N2)ccc1OC(=O)c1ccccc1` (centres undefined) the activity change, negative = inhibition was inconclusive: -41.7%. For `OCCNc1nc(-c2ccccc2)c2cc(Cl)ccc2n1`, the activity change, negative = inhibition was inconclusive: -51.5%. With `CCOC(=O)c1cc(-c2ccccc2)n(-c2cccc(C(=O)N(C)c3ccc(C)cc3)c2)c1C` the activity change, negative = inhibition was active: -62.7%. In the case of `CC(C)(C)OC(=O)N[C@@H](Cc1ccccc1)c1nnc(S(=O)(=O)Cc2cccc(F)c2)o1`, the activity change, negative = inhibition is reported as active: -119%. With `OCC1(Cc2ccc(Cl)cc2)CCN(CC2CC=CCC2)CC1` (centres undefined) the activity change, negative = inhibition was inactive: -6.49%. In the case of `O=C(NNc1nc(N2CCCC2)nc(N2CCCC2)n1)c1ccccc1`, the activity change, negative = inhibition is reported as active: -63.3%. In the case of `COc1cccc(NC(=O)Nc2ccc3c(c2)N(C)C(=O)CS3)c1`, the activity change, negative = inhibition is reported as inconclusive: -49.3%. With `COc1ccc(CC(=O)NCc2ccc3c(c2)CCN3C(=O)c2cccc(C)c2)cc1` the activity change, negative = inhibition was active: -97%.
